Laboratory results reported in the supplement of paper PMC12645437, “Orthogonal IMiD-Degron Pairs Induce Selective Protein Degradation in Cells” (ACS Chemical Biology, 2025).
Some of the results follow.

Target: no compound (DMSO)
Assay: log2 fold change of degron read counts, EGFP-low vs EGFP+ sorted cells; higher = lower degron-EGFP level without compound (poor expression or instability)
Conditions: compound: DMSO control; 18 h
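Also: jurkat cells carrying a lentiviral library of mutant zinc finger degrons fused to EGFP plus mCherry, mCherry+ cells FACS sorted, degron abundance counted by next-generation sequencing.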

Row | Sequence | log2 fold change of degron read counts
1 | FYCNQCGHDFTQKGNLLRHIKL | -0.601
2 | FQCPQCGAKFTQKGNLLRHIKL | -0.945
3 | FDCNVCGAQFTQKGNLLRHIKL | -0.933
4 | FLCDICGAAFTQKGNLLRHIKL | -1.64
5 | FNCPICGAGFTQKGNLLRHIKL | -0.387
6 | FLCDVCGAVFTQKGNLLRHIKL | -1.95
7 | FMCNICGAFFTQKGNLLRHIKL | 0.162
8 | FCCNQCGARFTQKGNLLRHIKL | -0.722
9 | FRCPICGHLFTQKGNLLRHIKL | 0.0774
10 | LMCPICGFNCTQKGNLLRHIKL | 0.597
11 | LCCPICGFMCTQKGNLLRHIKL | 0.87
12 | FSCEICGHYFTQKGNLLRHIKL | -0.624
13 | FMCDICGAFFTQKGNLLRHIKL | -1.13
14 | FCCNQCGRRFTQKGNLLRHIKL | -0.198
15 | FYCEICGHKFTQKGNLLRHIKL | -1.26
16 | FDCEICGHDFTQKGNLLRHIKL | -0.838
17 | LCCNQCGFHCTQKGNLLRHIKL | 0.726
18 | FDCPVCGAAFTQKGNLLRHIKL | -1.02
19 | LICPICGFVCTQKGNLLRHIKL | 1.24
20 | FYCDICGATFTQKGNLLRHIKL | -1.03
21 | FLCEQCGASFTQKGNLLRHIKL | -1.66
22 | FYCNVCGASFTQKGNLLRHIKL | 0.453
23 | FKCPICGAIFTQKGNLLRHIKL | -0.582
24 | FICDVCGANFTQKGNLLRHIKL | -2.12
25 | FSCEQCGAMFTQKGNLLRHIKL | -1.38

Row | Sequence | log2 fold change of degron read counts
26 | FDCNQCGRHFTQKGNLLRHIKL | 0.537
27 | FQCEICGRHFTQKGNLLRHIKL | -0.654
28 | FKCNVCGATFTQKGNLLRHIKL | -1.21
29 | FGCNVCGAWFTQKGNLLRHIKL | 0.351
30 | FRCEVCGAVFTQKGNLLRHIKL | -2.82
31 | FACDQCGADFTQKGNLLRHIKL | -0.904
32 | FMCEICGRYFTQKGNLLRHIKL | -0.793
33 | FGCEICGHKFTQKGNLLRHIKL | -0.472
34 | FCCEICGHQFTQKGNLLRHIKL | -0.683
35 | FGCEICGAFFTQKGNLLRHIKL | -0.48
36 | FLCDQCGAHFTQKGNLLRHIKL | -0.874
37 | FMCEICGRKFTQKGNLLRHIKL | -0.688
38 | FECDICGANFTQKGNLLRHIKL | -2.45
39 | FKCNQCGHDFTQKGNLLRHIKL | -1.68
40 | FKCPICGRFFTQKGNLLRHIKL | 0.0714
41 | LLCEICGFMCTQKGNLLRHIKL | 0.0782
42 | FGCEICGRCFTQKGNLLRHIKL | -0.699
43 | FKCEVCGAPFTQKGNLLRHIKL | -0.417
44 | FRCPICGASFTQKGNLLRHIKL | -0.195
45 | FDCPICGRNFTQKGNLLRHIKL | -0.669
46 | FICPICGALFTQKGNLLRHIKL | 0.392
47 | FDCNICGAYFTQKGNLLRHIKL | 0.995
48 | LRCPICGFSCTQKGNLLRHIKL | 0.587
49 | FSCDICGAGFTQKGNLLRHIKL | -0.966
50 | FLCNQCGHPFTQKGNLLRHIKL | 0.597
